Data published in US20110028542A1, “COMPOSITIONS FOR PREVENTION OR TREATMENT OF ANOREXIA-CACHEXIA SYNDROME AND USES THEREOF” (priority 2007, published 2011).
Like-named read-outs stand apart in the source and are kept apart here.

Tests used:
[1] = tested on: healthy mice (without tumor); test: Body weight gain of healthy mice; format: in vivo; conditions: 25 mg/kg day 1 to 4; day 3; vehicle 2%
Experimental: On day 1, no significant difference was observed between treatment with vehicle and 12.5 or 25 mg/kg β-caryophyllene (with about 2% of weight gain). However, α-caryophyllene increased weight gain with regards to initial weight on day 3 by about 4% and 5% for 12.5 and 25 mg/kg, respectively, in comparison with 2% for the vehicle.

C57BL6 mice = test: Turpentine abscess mice model of cachexia (loss of body weight); format: in vivo; conditions: for decrease of the loss of weight in comparison with turpentine treated-mice: 300 mg/kg orally day 1 to 3; for protection against the loss of weight induced by turpentine: terpenes 300 mg/kg orally day 1 to 3, p>0.05 (FIG. 11)
Experimental: The effect of β-caryophyllene on cachexia was evaluated using turpentine abscess mice model. Turpentine induces a local inflammation causing a drop of body weight. In the first experiment, the mice were treated orally with vehicle (olive oil and vitamin E (5 mg/ml)) or 50 mg/kg or 300 mg/kg of β-caryophyllene on day 1 to 3. On day 2, turpentine (Sigma-Aldrich, St-Louis) was administered subcutaneously (100 μl/mouse) in the hind of C57BL6 mice weighting 18 to 21 g (Charles Rivers, Canada). Ten mice per group were used for the above experiment.
Mice weight was measured on day 1 to 4.
In a further experiment, the effect of monoterpenes (beta-myrcene, limonene) and sesquiterpenes (alpha-humulene, isocaryophyllene, trans-nerolidol, beta-bisabolol) was evaluated in the turpentine abscess model. The mice (n=10 for each group) were treated orally with vehicle (olive oil and vitamin E (5 mg/ml)) or with various terpenes (300 mg/kg) on day 1 to 3. On day 2, turpentine (Sigma-Aldrich, St-Louis) was administered subcutaneously (100 μl/mouse) in the hind of C57BL6 mouse weighting 18 to 21 g (Charles Rivers, Canada). Mice weight was measured on day 1 to 4.

tumor LLC-bearing mice = conditions: day 7

## C=C1CC/C=C(\C)CC[C@@H]2[C@@H]1CC2(C)C [β-caryophyllene, (1R, 4E, 9S)-4-11,11-trimethyl-8-methylenebicyclo[7.2.0]undec-4-ene]
[1]
  weight gain with regards to initial weight: ~5%
C57BL6 mice; 50 mg/kg orally day 1 to 3, day 3 and 4, p>0.05
  effect on the loss of weight induced by turpentine: did not affect significantly the loss of weight
C57BL6 mice; day 3
  decrease of the loss of weight in comparison with turpentine treated-mice: about 37%
C57BL6 mice; day 4
  decrease of the loss of weight in comparison with turpentine treated-mice: ~44%
Tumor LLC-bearing mice; β-caryophyllene 12.5 mg/kg + Taxotere 15 mg/kg
  Toxicity* (%): 30%
Tumor LLC-bearing mice; β-caryophyllene 25 mg/kg + Taxotere 15 mg/kg
  Toxicity* (%): 10%

## C=C(C)[C@H]1CC=C(C)CC1 [limonene]
C57BL6 mice; day 3 and 4
  protection against the loss of weight induced by turpentine: did not significantly protect

## C/C1=C\CC/C(C)=C/CC(C)(C)/C=C/C1 [alpha-humulene]
C57BL6 mice; day 3 and 4
  protection against the loss of weight induced by turpentine: did not significantly protect

## C=C1CC/C=C(/C)CC[C@@H]2[C@@H]1CC2(C)C [isocaryophyllene]
C57BL6 mice; day 3 and 4
  protection against the loss of weight induced by turpentine: did not significantly protect

## C=CC(C)(O)CC/C=C(\C)CCC=C(C)C (stereo not drawn) [trans-nerolidol]
C57BL6 mice; day 3 and 4
  protection against the loss of weight induced by turpentine: did not significantly protect

## C=CC(=C)CCC=C(C)C [beta-myrcene]
C57BL6 mice; day 3 and 4
  protection against the loss of weight induced by turpentine: did not significantly protect

## CC(C)=CCC[C@H](C)[C@@]1(O)CC=C(C)CC1 [beta-bisabolol]
C57BL6 mice; day 3 and 4
  protection against the loss of weight induced by turpentine: did not significantly protect
